# The supplement of paper PMC8728848
# The list shows a part of the results.
# B1: rCnSL-A (Clitocybe nebularis) (protein)
# chain: VNPNLPGPNDVFVGFRGTNNIVGAIYEKDGIKDTPLNNGADAEMGPGSYITDGLFTARIFASGSAGNNPGTTATVCKIYASGVQWRGAPKGYIPVAYFGNGPTAEQRRQTYLRTLGLPGTAIRFGNLNTNPGQGPTAPRQMVVPPGPLRSLLKASCFPAADTRLPQTLHYFEKRVDWNIITAADSQTWGH
# What was measured:
# Experiment in all cases: glycan array binding signal (z-score within array); higher = stronger binding
# Details in all cases: glycan notation: IUPAC condensed, linker removed
# [1] = target: Fuc(a1-2)[Gal(a1-3)]Gal(b1-4)GlcNAc(b1-2)Man(a1-3)[Fuc(a1-2)[Gal(a1-3)]Gal(b1-4)GlcNAc(b1-2)Man(a1-6)]Man(b1-4)GlcNAc(b1-4)[Fuc(a1-6)]GlcNAc
# Method in brief: (§1)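 Glycan array data were curated from 3228 arrays in the Consortium for Functional Glycomics database and kept only where the protein sequence was available. Glycan names were converted to IUPAC-condensed notation, and columns mapping to the same glycan were averaged. The binding signal is a within-array Z-score, averaged across arrays of the same protein sequence at different concentrations or buffers and across linkers. Negative Z-scores can be read as non-binding.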
# [2] = target: Fuc(a1-2)[Gal(a1-3)]Gal(b1-4)GlcNAc(b1-3)GalNAc
# Method in brief: as §1
# [3] = target: Fuc(a1-2)[Gal(a1-3)]Gal(b1-4)GlcNAc(b1-3)[Fuc(a1-2)[Gal(a1-3)]Gal(b1-4)GlcNAc(b1-6)]GalNAc
# Method in brief: as §1
# [4] = target: Fuc(a1-2)[Gal(a1-3)]Gal(b1-4)GlcNAc(b1-6)GalNAc
# Method in brief: as §1
# [5] = target: Fuc(a1-2)[Gal(a1-3)]Gal(b1-4)[Fuc(a1-3)]Glc
# Method in brief: as §1
# [6] = target: Fuc(a1-2)[Gal(a1-3)]Gal(b1-4)[Fuc(a1-3)]GlcNAc
# Method in brief: as §1
# [7] = target: Fuc(a1-2)[Gal(a1-3)]Gal(b1-4)[Fuc(a1-3)]GlcNAc(b1-3)GalNAc
# Method in brief: as §1
# [8] = target: Fuc(a1-2)[Gal(a1-4)]Gal(b1-4)GlcNAc
# Method in brief: as §1
# [9] = target: Fuc(a1-2)[GalNAc(a1-3)]Gal
# Method in brief: as §1
# [10] = target: Fuc(a1-2)[GalNAc(a1-3)]Gal(b1-3)GalNAc(a1-3)[Fuc(a1-2)]Gal(b1-4)GlcNAc
# Method in brief: as §1
# [11] = target: Fuc(a1-2)[GalNAc(a1-3)]Gal(b1-3)GalNAc(b1-3)Gal(a1-4)Gal(b1-4)Glc
# Method in brief: as §1
# [12] = target: Fuc(a1-2)[GalNAc(a1-3)]Gal(b1-3)GlcNAc
# Method in brief: as §1
# [13] = target: Fuc(a1-2)[GalNAc(a1-3)]Gal(b1-3)GlcNAc(b1-2)Man(a1-3)[Fuc(a1-2)[GalNAc(a1-3)]Gal(b1-3)GlcNAc(b1-2)Man(a1-6)]Man(b1-4)GlcNAc(b1-4)GlcNAc
# Method in brief: as §1
# [14] = target: Fuc(a1-2)[GalNAc(a1-3)]Gal(b1-3)GlcNAc(b1-2)Man(a1-3)[Fuc(a1-2)[GalNAc(a1-3)]Gal(b1-3)GlcNAc(b1-2)Man(a1-6)]Man(b1-4)GlcNAc(b1-4)[Fuc(a1-6)]GlcNAc
# Method in brief: as §1
# [15] = target: Fuc(a1-2)[GalNAc(a1-3)]Gal(b1-3)GlcNAc(b1-3)GalNAc
# Method in brief: as §1
# [16] = target: Fuc(a1-2)[GalNAc(a1-3)]Gal(b1-3)GlcNAc(b1-6)GalNAc
# Method in brief: as §1
# [17] = target: Fuc(a1-2)[GalNAc(a1-3)]Gal(b1-4)Glc
# Method in brief: as §1
# [18] = target: Fuc(a1-2)[GalNAc(a1-3)]Gal(b1-4)GlcNAc
# Method in brief: as §1
# [19] = target: Fuc(a1-2)[GalNAc(a1-3)]Gal(b1-4)GlcNAc(b1-2)Man
# Method in brief: as §1
# [20] = target: Fuc(a1-2)[GalNAc(a1-3)]Gal(b1-4)GlcNAc(b1-2)Man(a1-3)[Fuc(a1-2)[GalNAc(a1-3)]Gal(b1-4)GlcNAc(b1-2)Man(a1-6)]Man(b1-4)GlcNAc(b1-4)GlcNAc
# Method in brief: as §1
# [21] = target: Fuc(a1-2)[GalNAc(a1-3)]Gal(b1-4)GlcNAc(b1-2)Man(a1-3)[Fuc(a1-2)[GalNAc(a1-3)]Gal(b1-4)GlcNAc(b1-2)Man(a1-6)]Man(b1-4)GlcNAc(b1-4)[Fuc(a1-6)]GlcNAc
# Method in brief: as §1
# [22] = target: Fuc(a1-2)[GalNAc(a1-3)]Gal(b1-4)GlcNAc(b1-3)Gal(b1-4)GlcNAc
# Method in brief: as §1
# [23] = target: Fuc(a1-2)[GalNAc(a1-3)]Gal(b1-4)GlcNAc(b1-3)Gal(b1-4)GlcNAc(b1-3)Gal(b1-4)GlcNAc
# Method in brief: as §1
# [24] = target: Fuc(a1-2)[GalNAc(a1-3)]Gal(b1-4)GlcNAc(b1-3)GalNAc
# Method in brief: as §1
# [25] = target: Fuc(a1-2)[GalNAc(a1-3)]Gal(b1-4)GlcNAc(b1-3)[Fuc(a1-2)[GalNAc(a1-3)]Gal(b1-4)GlcNAc(b1-6)]GalNAc
# Method in brief: as §1
# [26] = target: Fuc(a1-2)[GalNAc(a1-3)]Gal(b1-4)GlcNAc(b1-6)GalNAc
# Method in brief: as §1
# [27] = target: Fuc(a1-2)[GalNAc(a1-3)]Gal(b1-4)[Fuc(a1-3)]GlcNAc
# Method in brief: as §1
# [28] = target: Fuc(a1-2)[GalNAc(a1-3)]Gal(b1-4)[Fuc(a1-3)]GlcNAc(b1-3)GalNAc
# Method in brief: as §1
# [29] = target: Fuc(a1-2)[GalNAc(a1-4)]Gal(b1-4)GlcNAc
# Method in brief: as §1
# [30] = target: Fuc(a1-2)[GalNAc(b1-3)]Gal
# Method in brief: as §1
# Fuc(a1-3)GlcNAc = target: Fuc(a1-3)GlcNAc
# Method in brief: as §1
# [31] = target: Fuc(a1-3)[Gal(b1-4)]Glc6S
# Method in brief: as §1
# [32] = target: Fuc(a1-3)[Gal(b1-4)]GlcNAc
# Method in brief: as §1
# [33] = target: Fuc(a1-3)[Gal(b1-4)]GlcNAc(b1-2)Man
# Method in brief: as §1
# [34] = target: Fuc(a1-3)[Gal(b1-4)]GlcNAc(b1-2)Man(a1-3)[Fuc(a1-3)[Gal(b1-4)]GlcNAc(b1-2)Man(a1-6)]Man(b1-4)GlcNAc(b1-4)GlcNAc
# Method in brief: as §1
# [35] = target: Fuc(a1-3)[Gal(b1-4)]GlcNAc(b1-2)Man(a1-3)[Fuc(a1-3)[Gal(b1-4)]GlcNAc(b1-2)Man(a1-6)]Man(b1-4)GlcNAc(b1-4)[Fuc(a1-6)]GlcNAc
# Method in brief: as §1
# [36] = target: Fuc(a1-3)[Gal(b1-4)]GlcNAc(b1-3)Gal(b1-3)[Fuc(a1-4)]GlcNAc
# Method in brief: as §1
# [37] = target: Fuc(a1-3)[Gal(b1-4)]GlcNAc(b1-3)Gal(b1-4)[Fuc(a1-3)]GlcNAc
# Method in brief: as §1
# [38] = target: Fuc(a1-3)[Gal(b1-4)]GlcNAc(b1-3)Gal(b1-4)[Fuc(a1-3)]GlcNAc(b1-3)Gal(b1-4)[Fuc(a1-3)]GlcNAc
# Method in brief: as §1
# [39] = target: Fuc(a1-3)[Gal(b1-4)]GlcNAc(b1-3)GalNAc
# Method in brief: as §1
# [40] = target: Fuc(a1-3)[Gal(b1-4)]GlcNAc(b1-6)GalNAc
# Method in brief: as §1
# [41] = target: Fuc(a1-3)[Gal(b1-4)]GlcNAc(b1-6)[Gal(b1-3)GlcNAc(b1-3)]Gal(b1-4)Glc
# Method in brief: as §1
# [42] = target: Fuc(a1-3)[Gal(b1-4)]GlcNAc6S
# Method in brief: as §1
# [43] = target: Fuc(a1-3)[Gal3S(b1-4)]Glc
# Method in brief: as §1
# [44] = target: Fuc(a1-3)[Gal3S(b1-4)]GlcNAc
# Method in brief: as §1
# [45] = target: Fuc(a1-3)[Gal3S(b1-4)]GlcNAc6S
# Method in brief: as §1
# [46] = target: Fuc(a1-3)[GalNAc(b1-4)]GlcNAc
# Method in brief: as §1
# [47] = target: Fuc(a1-3)[GalNAc(b1-4)]GlcNAc6S
# Method in brief: as §1
# Fuc(a1-4)GlcNAc = target: Fuc(a1-4)GlcNAc
# Method in brief: as §1
# Fuc(b1-3)GlcNAc = target: Fuc(b1-3)GlcNAc
# Method in brief: as §1
# Gal(a1-2)Gal = target: Gal(a1-2)Gal
# Method in brief: as §1
# Gal(a1-3)Gal = target: Gal(a1-3)Gal
# Method in brief: as §1
# Gal(a1-3)Gal(b1-3)GlcNAc = target: Gal(a1-3)Gal(b1-3)GlcNAc
# Method in brief: as §1
# [48] = target: Gal(a1-3)Gal(b1-3)GlcNAc(b1-2)Man
# Method in brief: as §1
# [49] = target: Gal(a1-3)Gal(b1-3)GlcNAc(b1-2)Man(a1-3)[Gal(a1-3)Gal(b1-3)GlcNAc(b1-2)Man(a1-6)]Man(b1-4)GlcNAc(b1-4)GlcNAc
# Method in brief: as §1
# [50] = target: Gal(a1-3)Gal(b1-3)GlcNAc(b1-3)GalNAc
# Method in brief: as §1
# [51] = target: Gal(a1-3)Gal(b1-3)GlcNAc(b1-6)GalNAc
# Method in brief: as §1
# [52] = target: Gal(a1-3)Gal(b1-3)[Fuc(a1-4)]GlcNAc(b1-2)Man(a1-3)[Gal(a1-3)Gal(b1-3)[Fuc(a1-4)]GlcNAc(b1-2)Man(a1-6)]Man(b1-4)GlcNAc(b1-4)GlcNAc
# Method in brief: as §1
# Gal(a1-3)Gal(b1-4)Glc = target: Gal(a1-3)Gal(b1-4)Glc
# Method in brief: as §1
# Gal(a1-3)Gal(b1-4)GlcNAc = target: Gal(a1-3)Gal(b1-4)GlcNAc
# Method in brief: as §1
binder,measurement,setting,value
B1,glycan array binding signal (z-score),[1],0.054
same,glycan array binding signal (z-score),[2],-0.235
same,glycan array binding signal (z-score),[3],-0.176
same,glycan array binding signal (z-score),[4],-0.178
same,glycan array binding signal (z-score),[5],-0.235
same,glycan array binding signal (z-score),[6],-0.091
same,glycan array binding signal (z-score),[7],-0.339
same,glycan array binding signal (z-score),[8],-0.173
same,glycan array binding signal (z-score),[9],-0.204
same,glycan array binding signal (z-score),[10],-0.25
same,glycan array binding signal (z-score),[11],-0.288
same,glycan array binding signal (z-score),[12],-0.222
same,glycan array binding signal (z-score),[13],-0.298
same,glycan array binding signal (z-score),[14],0.526
same,glycan array binding signal (z-score),[15],-0.155
same,glycan array binding signal (z-score),[16],-0.306
same,glycan array binding signal (z-score),[17],-0.218
same,glycan array binding signal (z-score),[18],-0.252
same,glycan array binding signal (z-score),[19],-0.326
same,glycan array binding signal (z-score),[20],-0.319
same,glycan array binding signal (z-score),[21],0.016
same,glycan array binding signal (z-score),[22],-0.3
same,glycan array binding signal (z-score),[23],-0.002
same,glycan array binding signal (z-score),[24],-0.227
same,glycan array binding signal (z-score),[25],-0.21
same,glycan array binding signal (z-score),[26],-0.283
same,glycan array binding signal (z-score),[27],-0.163
same,glycan array binding signal (z-score),[28],-0.031
same,glycan array binding signal (z-score),[29],-0.456
same,glycan array binding signal (z-score),[30],-0.31
same,glycan array binding signal (z-score),Fuc(a1-3)GlcNAc,-0.258
same,glycan array binding signal (z-score),[31],-0.019
same,glycan array binding signal (z-score),[32],-0.312
same,glycan array binding signal (z-score),[33],-0.213
same,glycan array binding signal (z-score),[34],-0.253
same,glycan array binding signal (z-score),[35],-0.184
same,glycan array binding signal (z-score),[36],-0.109
same,glycan array binding signal (z-score),[37],-0.069
same,glycan array binding signal (z-score),[38],0.066
same,glycan array binding signal (z-score),[39],-0.232
same,glycan array binding signal (z-score),[40],-0.093
same,glycan array binding signal (z-score),[41],-0.004
same,glycan array binding signal (z-score),[42],-0.193
same,glycan array binding signal (z-score),[43],-0.148
same,glycan array binding signal (z-score),[44],-0.216
same,glycan array binding signal (z-score),[45],-0.253
same,glycan array binding signal (z-score),[46],-0.143
same,glycan array binding signal (z-score),[47],-0.255
same,glycan array binding signal (z-score),Fuc(a1-4)GlcNAc,-0.178
same,glycan array binding signal (z-score),Fuc(b1-3)GlcNAc,-0.225
same,glycan array binding signal (z-score),Gal(a1-2)Gal,-0.273
same,glycan array binding signal (z-score),Gal(a1-3)Gal,-0.219
same,glycan array binding signal (z-score),Gal(a1-3)Gal(b1-3)GlcNAc,-0.216
same,glycan array binding signal (z-score),[48],-0.158
same,glycan array binding signal (z-score),[49],0.038
same,glycan array binding signal (z-score),[50],-0.204
same,glycan array binding signal (z-score),[51],-0.247
same,glycan array binding signal (z-score),[52],-0.251
same,glycan array binding signal (z-score),Gal(a1-3)Gal(b1-4)Glc,-0.211
same,glycan array binding signal (z-score),Gal(a1-3)Gal(b1-4)GlcNAc,-0.243
